# In the supplement of paper PMC3694890:
# ± gives the uncertainty stated by the source. This is one part of the list. A small y stands for phosphotyrosine.
# Biological target: GRB2 (endogenous complexes from cell lysate), P62993
# Experiment: GRB2 complex binding differential signal (pY peptide minus Ala control peptide) (fluorescence intensity units); higher = stronger GRB2 complex binding
# 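Note: phosphopeptide probes on the chip at 1–4 µM, lysate proteins bound in 20 mM Tris pH 7.0 buffer with 140 mM NaCl, 1% Triton X-100 and 5% glycerol.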
Binder,GRB2 complex binding differential signal (MCF7),GRB2 complex binding differential signal (MCF10A),GRB2 complex binding differential signal (MDA-MB-231),GRB2 complex binding differential signal (T47D)
ySADYY [MUSK_751/A1],105 ± 180,101 ± 180,862 ± 360,2390 ± 1200
yYKANE [MUSK_755/A1],935 ± 750,1150 ± 320,741 ± 380,690 ± 990
yKANEN [MUSK_756/A1],1730 ± 660,3910 ± 1600,1070 ± 410,243 ± 2100
yYVRDG [MUSK_813/A1],397 ± 740,350 ± 270,362 ± 250,389 ± 950
yKLEK [MYH11_1415 /A1],1400 ± 370,1350 ± 390,1260 ± 370,1960 ± 890
yKFGHT [MYH3_757/A1],99.1 ± 280,169 ± 160,230 ± 330,27.8 ± 1200
yDLNMP [NCK1_105/A1],771 ± 230,274 ± 260,783 ± 360,1660 ± 1200
yIRPSL [NCK1_268/A1],11500 ± 3500,4080 ± 710,1500 ± 430,3170 ± 1400
yDLNIP [NCK2_110/A1],921 ± 540,678 ± 320,477 ± 440,536 ± 1000
yGYQQQ [ALK_1584/A1],421 ± 270,-1170 ± 750,320 ± 530,220 ± 920
yFSDAC [NTRK1_496/A1],437 ± 1200,190 ± 180,401 ± 260,80.5 ± 870
ySTDYY [NTRK1_676/A1],44.5 ± 150,320 ± 390,662 ± 340,805 ± 1200
yYRVGG [NTRK1_680/A1],3350 ± 600,1020 ± 270,301 ± 280,375 ± 1200
yRVGGR [NTRK1_681/A1],1410 ± 360,669 ± 210,150 ± 270,
yAIMRG [NTRK1_757/A1],1980 ± 600,1230 ± 250,293 ± 270,994 ± 2400
yLDVLG [NTRK1_791/A1],181 ± 300,176 ± 140,354 ± 280,99.2 ± 920
yFGITN [NTRK2_516/A1],124 ± 330,210 ± 230,810 ± 260,596 ± 740

Binder,GRB2 complex binding differential signal (MCF7),GRB2 complex binding differential signal (MCF10A),GRB2 complex binding differential signal (MDA-MB-231),GRB2 complex binding differential signal (T47D)
yRVGGH [NTRK2_707/A1],1380 ± 410,1130 ± 480,286 ± 280,21.2 ± 740
yLDILG [NTRK2_817/A1],-107 ± 290,64.5 ± 150,216 ± 310,125 ± 1200
yFRQGH [NTRK3_516/A1],553 ± 220,88.2 ± 310,229 ± 280,184 ± 820
yEDTIL [ALK_1604/A1],278 ± 200,328 ± 210,476 ± 420,699 ± 1000
yYRLFN [NTRK3_709/A1],316 ± 160,176 ± 200,1080 ± 450,861 ± 1000
yRLFNP [NTRK3_710/A1],498 ± 410,44.8 ± 170,637 ± 460,161 ± 1100
yKRKAN [OSTP_246/A1],78.9 ± 160,15.5 ± 140,913 ± 360,227 ± 1000
yFINEE [P55G_341/A1],155 ± 430,1470 ± 1400,508 ± 350,66.5 ± 1000
yNTQFQ [P85A_452/A1],-1570 ± 4900,582 ± 310,-978 ± 3900,252 ± 930
yEEYTR [P85A_467/A1],650 ± 280,-142 ± 670,864 ± 410,509 ± 1000
yIEKFK [P85A_508/A1],1280 ± 1400,997 ± 200,436 ± 530,495 ± 890
yDKLKS [P85A_530/A1],634 ± 190,521 ± 530,1070 ± 340,837 ± 940
yREIDK [P85A_556/A1],1460 ± 490,1250 ± 260,971 ± 330,913 ± 1100
yLMWLT [P85A_580/A1],-5.51 ± 250,13.8 ± 120,639 ± 320,106 ± 860
yLELGG [AT1A1_542/A1],-132 ± 720,154 ± 230,450 ± 250,331 ± 1200
ySLVED [P85A_607/A1],346 ± 490,259 ± 210,759 ± 330,
